These results are taken from the supplement of paper PMC9446081.

Structures are written as SMILES. Out of some 39,000 compounds screened, about 220 (0.56%) showed activity. The list shows a part of the results.
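Also: static incubation at 37 °C against the wild-type strain, values averaged over two biological replicates.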

For this assay, the system named is Escherichia coli K-12 BW25113. Briefly: relative growth (OD600 normalised to plate interquartile mean) (fraction); higher = less growth inhibition, active = 0.2 or less. The conditions noted are these: 50 µM; LB; incubation time: overnight (16-24 h).
Turning to `C[C@@H]1CCCCO[C@@H](CN(C)C(=O)Cc2ccccc2)[C@H](C)CN([C@H](C)CO)C(=O)c2cc(NC(=O)c3ccccc3)ccc2O1`, the relative growth is inactive: 0.987.
Next, `COc1ccc(NC(=O)Nc2cccc3c2O[C@@H](CN(C)C(=O)Nc2cccc4ccccc24)[C@H](C)CN([C@@H](C)CO)C3=O)cc1`: inactive: 1.01; `O=S(=O)(NCC[C@H]1CC[C@@H](NS(=O)(=O)c2cccc(Cl)c2)[C@@H](CO)O1)c1cccc(F)c1`: inactive: 0.982.
Consider `C[C@@H]1CN([C@H](C)CO)C(=O)c2cc(C#Cc3ccncc3)cnc2O[C@@H]1CN(C)C(=O)c1ccccc1F`, for which the relative growth is inactive: 0.978.
The figure for `C=C(C)C1CCC2(C)CCC3(C)C(CCC4C5(C)CCC(O)C(C)(C)C5CCC43C)C12` (stereo not given) is inactive: 1.03; for `C#CCN([C@H](/C=C/C1CC1)[C@@H](O)CCn1cc(CCC(=O)NO)nn1)[C@@H](Cc1ccccc1)C(=O)OC` it is inactive: 0.994.
As for `COC[C@@H]1CNN1C(=O)OC(C)(C)C`, the relative growth is inactive: 1.01.
Next, `COCC(=O)Nc1ccc2c(c1)OC[C@@H](C)N(Cc1ccccc1F)C[C@H](C)[C@H](OC)CN(C)C2=O`: inactive: 1.01; `C[C@H]1CN([C@@H](C)CO)S(=O)(=O)c2ccc(C#Cc3ccc(F)cc3)cc2O[C@H]1CN(C)C(=O)CN(C)C`: inactive: 0.998.
Turning to `C[C@@H]1CN([C@@H](C)CO)C(=O)c2cccc(NC(=O)c3ccc(-c4nccs4)cc3)c2O[C@H]1CN(C)S(=O)(=O)c1cn(C)cn1`, the relative growth was inactive: 1.02.
Next, `C[C@@H]1CN([C@@H](C)CO)C(=O)Cc2cc(NC(=O)NC3CCCCC3)ccc2O[C@@H]1CN(C)Cc1ccc(Cl)c(Cl)c1`: inactive: 0.992; `C[C@H](CO)N1C[C@H](C)[C@@H](CN(C)S(=O)(=O)c2ccccc2)OCCCC[C@H](C)Oc2ccc(NS(=O)(=O)c3cn(C)cn3)cc2C1=O`: inactive: 0.993; `FC(F)(F)CN1CCNCC1`: inactive: 0.98.
Consider `NC(=O)N[C@@H]1CC(=O)N(c2ccccc2)C1`, for which the relative growth is inactive: 0.921.
With `COc1ccc(NC(=O)N2C[C@H](O)COC[C@H]3O[C@@H](CC(=O)NC4Cc5ccccc5C4)CC[C@@H]32)cc1`, the relative growth is inactive: 0.923.
The figure for `Cc1cc(C(=O)Nc2cccc3c2O[C@H](CN(C)S(=O)(=O)c2ccc(Cl)cc2)[C@@H](C)CN([C@@H](C)CO)C3=O)n(C)n1` is inactive: 1.01; for `COc1cc(O)cc(OC)c1O[C@@H]1O[C@H](CO)[C@@H](O)[C@H](O)[C@H]1O` it is inactive: 1.01.
Next, `CC(=O)NCCCC[C@@H]1NC(=O)[C@@H]2C[C@H](C(=O)NCCCCCCN(C)C)[C@H](c3ccc(O)cc3)N2C1=O`: inactive: 0.963; `C[C@@H]1CN([C@@H](C)CO)S(=O)(=O)c2ccc(C#Cc3ccccc3F)cc2O[C@H]1CN(C)C(=O)Cc1ccncc1`: inactive: 1.02; `O=C(NS(=O)(=O)c1ccccc1)c1nnc[nH]1`: inactive: 0.958.
With `Cc1noc(C)c1NC(=O)N(C)C[C@@H]1Oc2ncc(Br)cc2C(=O)N([C@H](C)CO)C[C@@H]1C`, the relative growth is inactive: 0.931.
Next, `O=C(C[C@@H]1CC[C@@H]2[C@H](COC[C@@H](O)CN2C(=O)c2cnccn2)O1)N1CCN(c2ccccc2)CC1`: inactive: 0.995; `O=C(CCCCCNC(=O)OCCCCO[C@@H]1C[C@H](C2CCCCC2)C=C(C(=O)N2CCOCC2)O1)NO`: inactive: 0.992; `COc1ccc(NC(=O)Nc2ccc3c(c2)C(=O)N([C@H](C)CO)C[C@H](C)[C@@H](CN(C)Cc2ccccc2)OCCCC[C@@H](C)O3)cc1`: inactive: 1.
Turning to `Cc1noc(C)c1NC(=O)Nc1ccc2c(c1)C(=O)N([C@H](C)CO)C[C@H](C)[C@@H](CN(C)Cc1ccc(C(F)(F)F)cc1)O2`, the relative growth is inactive: 1.
`CCOC(=O)[C@@H](C)n1ncn2cccc2c1=O`: the relative growth is inactive: 1.01.
The figure for `C[C@H](CO)N1C[C@H](C)[C@@H](CN(C)S(=O)(=O)c2ccccc2)Oc2c(NC(=O)C3CCOCC3)cccc2C1=O` is inactive: 1; for `C[C@H]1CN([C@@H](C)CO)S(=O)(=O)c2ccc(-c3ccc(C(=O)N(C)C)cc3)cc2O[C@H]1CN(C)C(=O)C1CCC1` it is inactive: 1.01; for `C[C@@H]1CCCCO[C@@H](CN(C)Cc2ccc(Cl)c(Cl)c2)[C@H](C)CN([C@H](C)CO)C(=O)c2cc(NS(=O)(=O)c3ccccc3)ccc2O1` it is inactive: 1.01.
As for `COCC(=O)N1C[C@H](C)[C@H](OC)CN(C)C(=O)c2cc(NC(=O)Nc3ccccc3)ccc2OC[C@@H]1C`, the relative growth is inactive: 1.
The figure for `C[C@H]1CCCCO[C@H](CN(C)C(=O)C2CCCCC2)[C@@H](C)CN([C@@H](C)CO)C(=O)c2cc(NS(=O)(=O)c3ccc(Cl)cc3)ccc2O1` is inactive: 1.03; for `CO[C@@H]1CN(C)C(=O)c2ccc(NS(=O)(=O)CC(F)(F)F)cc2OC[C@@H](C)N(Cc2nccs2)C[C@@H]1C` it is inactive: 1; for `Cc1noc(C)c1NC(=O)N(C)C[C@H]1OCCCC[C@H](C)Oc2ccc(NC(=O)C3CCCCC3)cc2C(=O)N([C@@H](C)CO)C[C@H]1C` it is inactive: 0.998.
Next, `C[C@@H]1CN([C@H](C)CO)C(=O)c2c(c3ccccc3n2C)-c2ccccc2CO[C@@H]1CN(C)Cc1ccc2c(c1)OCO2`: inactive: 1.01; `O=C(NCc1cccc(F)c1)[C@@H]1[C@@H](CO)[C@@H]2Cn3c(cccc3=O)[C@H]1N2C(=O)c1cnccn1`: inactive: 1.02; `C[C@H]1CN([C@@H](C)CO)S(=O)(=O)c2ccc(-c3cncnc3)cc2O[C@H]1CN(C)C(=O)Cc1ccncc1`: inactive: 1.01.
Next, `C[C@@H]1CN([C@@H](C)CO)C(=O)c2cc(NC(=O)Cc3ccccc3)ccc2O[C@@H](C)CCCCO[C@H]1CN(C)Cc1ccccc1`: inactive: 0.953; `CO[C@H]1CN(C)C(=O)c2cc(NS(C)(=O)=O)ccc2OC[C@@H](C)N(C(=O)CN(C)C)C[C@H]1C`: inactive: 0.991.
With `C[C@@H]1CN([C@@H](C)CO)C(=O)c2cc(C#Cc3ccccc3F)cnc2O[C@H]1CN(C)S(=O)(=O)c1ccccc1F`, the relative growth is inactive: 1.04.
The figure for `C[C@@H]1CN([C@H](C)CO)C(=O)CCCn2nncc2CO[C@@H]1CN(C)C(=O)Nc1ccc(C(C)(C)C)cc1` is inactive: 1.01.
